Some of the results follow. Viral Rep nickase domains cut single-stranded DNA in vitro (1 h at 37 °C, 3 µM enzyme); the outer parts of the 90-letter strands are left off. A value is the log2 ratio of uncut reads to the pool without enzyme; strong cutting gives strongly negative numbers. There is no active / inactive call. Reads are scaled to the total; values above 0 arise when much of the pool is cut.
How the values were obtained:
Test in all cases: uncleaved DNA left, log2 of reads against the no-enzyme library (log2 ratio); higher = less cleavage (more negative = more Rep cleavage of the k-mer); sequences stand for … in CTCGTCCG…ACCGGAGA
[1] = tested on: T1, Rep nickase domain of Muscovy duck circovirus
T1 sequence (residues 1-111, tag not shown): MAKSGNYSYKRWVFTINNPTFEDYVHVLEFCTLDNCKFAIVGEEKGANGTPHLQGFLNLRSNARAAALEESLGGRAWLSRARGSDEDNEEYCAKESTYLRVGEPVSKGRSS
Method: (§1)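 A pool of 90-nt single-stranded DNAs with seven random bases just before the constant AC of the nick site (name = the seven bases) was cut by 3 µM recombinant His6-SUMO-tagged Rep nickase domain (300 nM DNA, 50 mM HEPES pH 8.0, 50 mM NaCl, 1 mM MnCl2, 1 h, 37 °C, three replicates). Uncut DNA was amplified and sequenced.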

[2] = tested on: T2, Rep nickase domain of banana bunchy top virus
T2 sequence (residues 1-94, tag not shown): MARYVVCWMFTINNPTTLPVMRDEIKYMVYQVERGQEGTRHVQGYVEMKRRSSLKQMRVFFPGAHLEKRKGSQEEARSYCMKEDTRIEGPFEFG
Method: as §1

[3] = tested on: T3, Rep nickase domain of cabbage leaf curl virus
T3 sequence (residues 1-116, tag not shown): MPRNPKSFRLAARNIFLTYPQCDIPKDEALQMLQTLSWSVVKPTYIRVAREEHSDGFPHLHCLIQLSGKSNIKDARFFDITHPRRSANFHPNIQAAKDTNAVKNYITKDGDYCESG
Method: as §1

[4] = tested on: T4, Rep nickase domain of chickpea chlorotic dwarf virus
T4 sequence (residues 1-124, tag not shown): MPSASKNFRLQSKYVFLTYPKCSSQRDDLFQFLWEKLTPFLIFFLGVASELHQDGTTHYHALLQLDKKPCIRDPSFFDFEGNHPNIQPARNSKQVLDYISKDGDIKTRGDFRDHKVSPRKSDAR
Method: as §1

[5] = tested on: T5, Rep nickase domain of faba bean necrotic yellows virus
T5 sequence (residues 1-98, tag not shown): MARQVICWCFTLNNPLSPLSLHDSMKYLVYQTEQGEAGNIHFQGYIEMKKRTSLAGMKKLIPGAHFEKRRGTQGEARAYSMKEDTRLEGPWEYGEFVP
Method: as §1

[6] = tested on: T6, Rep nickase domain of maize striate mosaic virus
T6 sequence (residues 1-117, tag not shown): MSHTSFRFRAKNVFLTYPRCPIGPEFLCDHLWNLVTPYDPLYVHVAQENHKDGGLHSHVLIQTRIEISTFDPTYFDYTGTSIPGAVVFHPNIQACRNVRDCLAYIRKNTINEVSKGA
Method: as §1

[7] = tested on: T7, Rep nickase domain of porcine circovirus 2
T7 sequence (residues 2-116, tag not shown): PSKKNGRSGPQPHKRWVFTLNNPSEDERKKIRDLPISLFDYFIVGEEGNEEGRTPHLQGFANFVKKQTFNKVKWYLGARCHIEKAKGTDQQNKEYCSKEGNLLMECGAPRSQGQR
Method: as §1

[8] = tested on: T8, Rep nickase domain of tomato golden mosaic virus
T8 sequence (residues 1-124, tag not shown): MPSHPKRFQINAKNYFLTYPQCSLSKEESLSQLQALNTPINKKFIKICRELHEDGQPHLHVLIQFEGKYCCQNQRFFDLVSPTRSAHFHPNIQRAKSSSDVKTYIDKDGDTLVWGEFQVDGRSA
Method: as §1

[9] = tested on: T9, Rep nickase domain of tomato yellow leaf curl virus
T9 sequence (residues 1-136, tag not shown): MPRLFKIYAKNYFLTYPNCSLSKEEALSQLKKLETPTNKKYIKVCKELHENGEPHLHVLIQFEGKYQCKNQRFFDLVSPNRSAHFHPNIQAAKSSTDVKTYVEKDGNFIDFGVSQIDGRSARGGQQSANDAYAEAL
Method: as §1

[10] = tested on: T10, Rep nickase domain of wheat dwarf virus
T10 sequence (residues 1-137, tag not shown): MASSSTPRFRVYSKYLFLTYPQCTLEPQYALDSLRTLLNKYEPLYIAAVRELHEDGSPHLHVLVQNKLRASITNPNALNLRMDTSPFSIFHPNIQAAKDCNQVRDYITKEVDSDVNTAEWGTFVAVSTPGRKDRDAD
Method: as §1

Sequence | uncleaved DNA left (log2) [1] | uncleaved DNA left (log2) [2] | uncleaved DNA left (log2) [3] | uncleaved DNA left (log2) [4] | uncleaved DNA left (log2) [5] | uncleaved DNA left (log2) [6] | uncleaved DNA left (log2) [7] | uncleaved DNA left (log2) [8] | uncleaved DNA left (log2) [9] | uncleaved DNA left (log2) [10]
ACGTAAA | 0.0875 | 0.0949 | -0.135 | 0.0994 | 0.097 | -0.599 | -0.00763 | 0.0512 | -0.0988 | -0.0349
AGAATCC | 0.146 | 0.128 | 0.458 | 0.964 | 0.105 | 0.6 | 0.159 | 0.163 | 0.125 | 0.14
GTGATGC | -0.0333 | 0.166 | 0.131 | 0.779 | -0.0574 | 1.34 | -0.00133 | 0.125 | 0.068 | 0.00934
CCATCGG | -0.0889 | 0.034 | 0.276 | 1.04 | -0.164 | 1.04 | -0.0258 | 0.0623 | -0.224 | -0.112
GTGGAGC | 0.0664 | 0.124 | 0.462 | 1.08 | 0.147 | 1.64 | 0.213 | 0.235 | 0.17 | 0.134
TCGATCT | 0.0321 | 0.0711 | 0.105 | -0.82 | 0.0573 | 0.482 | -0.151 | -0.0267 | 0.0456 | 0.181
TGAGCTT | 0.0209 | -0.148 | 0.147 | -0.704 | -0.0741 | 0.69 | -0.133 | 0.00294 | 0.00094 | -0.139
TTCGTGG | 0.144 | 0.0303 | 0.458 | 0.705 | 0.112 | 0.772 | 0.188 | 0.103 | 0.0493 | 0.135
GGCCCTC | -0.0168 | -0.0295 | 0.398 | 1.19 | -0.0725 | 1.57 | 0.0476 | -0.177 | 0.0277 | 0.0336
GCGTTGA | -0.0378 | -0.135 | -0.104 | 0.348 | -0.123 | -0.156 | -0.0587 | -0.0809 | -0.0567 | -0.0709
CGATTCG | -0.149 | -0.0933 | -0.815 | -0.468 | -0.000858 | -0.887 | 0.218 | -0.2 | 0.125 | -0.046
TGCTTAG | 0.191 | -0.101 | -0.501 | -0.454 | 0.109 | -1.12 | 0.13 | 0.0479 | 0.00149 | 0.0338
CTGTAAT | -2.24 | -0.715 | -0.0815 | -1.27 | -1.07 | -0.506 | -3.47 | -0.0244 | 0.00549 | -0.0801
ACATTTT | -3.34 | -0.082 | -0.644 | -2.77 | -0.0262 | -0.972 | -3.41 | -0.0955 | -0.161 | -0.113
CATGTCT | 0.015 | -0.365 | -0.517 | -2.55 | -0.0484 | -1.07 | -0.425 | -0.0546 | -0.0343 | -0.165
GAAAGTG | 0.13 | -0.0014 | -0.451 | -0.514 | 0.0848 | -0.75 | 0.226 | 0.0741 | 0.0959 | 0.00894

Sequence | uncleaved DNA left (log2) [1] | uncleaved DNA left (log2) [2] | uncleaved DNA left (log2) [3] | uncleaved DNA left (log2) [4] | uncleaved DNA left (log2) [5] | uncleaved DNA left (log2) [6] | uncleaved DNA left (log2) [7] | uncleaved DNA left (log2) [8] | uncleaved DNA left (log2) [9] | uncleaved DNA left (log2) [10]
GGCGACA | -0.0716 | 0.0566 | 0.378 | 1.44 | 0.0171 | 1.98 | 0.0426 | -0.0663 | -0.077 | 0.0466
ACCTGTT | -2.91 | -0.22 | -0.948 | -2.1 | -0.242 | -0.638 | -2.88 | -0.0458 | -0.0419 | -0.589
CAAGTGT | 0.111 | -0.0112 | -0.38 | -0.925 | 0.0409 | -0.592 | -0.0152 | -0.0699 | -0.0619 | -0.0875
CGATGGT | -0.0852 | 0.00533 | 0.108 | 0.426 | 0.0949 | 0.951 | -0.235 | 0.134 | -0.00295 | 0.135
TGATCAC | 0.013 | 0.128 | 0.335 | 0.697 | -0.0235 | 0.866 | 0.104 | -0.0295 | 0.21 | 0.271
TTGGCAC | -0.0385 | 0.0373 | 0.136 | 0.132 | -0.0126 | -0.213 | 0.00309 | -0.127 | 0.09 | 0.0147
CGTTTGG | -0.0373 | -0.0104 | -0.438 | -0.455 | 0.0519 | -0.918 | 0.0429 | -0.07 | -0.0294 | -0.0215
CTTGAAT | -0.0541 | -0.0189 | -0.0133 | -0.42 | 0.0926 | -0.425 | -1.74 | 0.0398 | 0.126 | 0.0647
TATGAGG | 0.163 | 0.0605 | 0.49 | 1.13 | 0.0864 | 1.14 | 0.206 | 0.127 | 0.0906 | 0.123
CGTCAGG | -0.0553 | 0.0653 | 0.168 | 0.686 | 0.0379 | 0.467 | 0.107 | 0.0177 | 0.0187 | 0.131
TCAAGAG | -0.0262 | 0.000129 | -0.567 | -0.576 | 0.0482 | -1.06 | 0.179 | 0.0372 | -0.0843 | -0.129
CTCGCAT | 0.061 | 0.00474 | -0.174 | -0.499 | 0.0465 | -0.583 | -0.187 | -0.0363 | 0.064 | -0.0192
GCACTAC | -0.0754 | 0.0373 | -0.165 | -1.08 | -0.025 | -0.178 | -0.063 | -0.0568 | -0.0834 | -0.0215
CTTTACT | -3.45 | -1.72 | -0.577 | -2.74 | -0.0837 | -0.982 | -3.74 | -0.0648 | 0.025 | -0.196
TGTCGAT | 0.0924 | 0.0654 | 0.0158 | 0.252 | 0.0126 | 0.106 | -0.0698 | 0.0844 | 0.103 | 0.118

From the supplement of paper PMC7826260
